Laboratory results: PMC7765025
No constants are given. Whether binding was seen depends on the method and setting. For part of these data: Binding seen in cells or lysates may run through a third protein. Some entries that bind do so weakly or less than the wild type. For part of these data: Where a sequence is shown, tags or fusion partners need not be part of it.

Assays:
[1] = biological target: T1, GST-fused TXNIP (pEBG-TXNIP) (UniProt Q9H3M7); test: pull-down; GST pull-down from lysates (RIPA buffer) of transiently cotransfected HEK 293 cells; glutathione Sepharose 4B, 3 h at 4 °C, washed four times; blots with α-FLAG and α-GST
T1 sequence: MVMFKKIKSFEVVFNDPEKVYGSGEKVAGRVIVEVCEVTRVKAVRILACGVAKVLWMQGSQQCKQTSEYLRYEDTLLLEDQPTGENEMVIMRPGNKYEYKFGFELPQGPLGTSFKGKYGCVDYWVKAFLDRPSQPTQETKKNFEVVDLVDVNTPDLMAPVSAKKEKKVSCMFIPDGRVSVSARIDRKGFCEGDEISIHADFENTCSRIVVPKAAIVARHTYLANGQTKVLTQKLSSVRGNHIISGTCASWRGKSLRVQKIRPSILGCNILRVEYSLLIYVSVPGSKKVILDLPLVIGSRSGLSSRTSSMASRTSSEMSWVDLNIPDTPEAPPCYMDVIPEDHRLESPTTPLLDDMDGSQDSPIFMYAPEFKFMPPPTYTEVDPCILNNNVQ

[2] = biological target: T2, purified recombinant TAK1 (UniProt O43318); test: pull-down; purified recombinant TXNIP and TAK1 proteins (Figure S3A; Figure S3 is titled GST pull-down assays); which protein was held is not told; both purified
T2 sequence: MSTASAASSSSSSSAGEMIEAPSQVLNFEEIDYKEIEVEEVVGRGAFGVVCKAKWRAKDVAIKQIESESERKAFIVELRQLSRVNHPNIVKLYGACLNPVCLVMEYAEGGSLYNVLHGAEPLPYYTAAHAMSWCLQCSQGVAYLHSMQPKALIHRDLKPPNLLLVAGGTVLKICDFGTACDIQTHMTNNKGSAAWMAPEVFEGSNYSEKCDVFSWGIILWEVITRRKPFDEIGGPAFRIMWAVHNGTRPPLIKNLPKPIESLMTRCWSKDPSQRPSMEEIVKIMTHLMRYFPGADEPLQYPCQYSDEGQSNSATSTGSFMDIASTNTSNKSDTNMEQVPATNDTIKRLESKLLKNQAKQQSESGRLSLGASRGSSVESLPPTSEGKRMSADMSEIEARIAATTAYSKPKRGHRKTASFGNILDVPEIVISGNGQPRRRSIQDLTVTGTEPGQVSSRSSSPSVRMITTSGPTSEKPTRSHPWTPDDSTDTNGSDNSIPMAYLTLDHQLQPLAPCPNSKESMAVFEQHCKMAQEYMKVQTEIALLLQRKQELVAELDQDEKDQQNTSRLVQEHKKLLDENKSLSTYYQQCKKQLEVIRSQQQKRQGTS

[3] = biological target: T3, endogenous TAK1 of NK92 cells (human (endogenous in NK92)) (UniProt O43318); test: co-IP; endogenous proteins in NK92 lysates (RIPA buffer), immunoprecipitated with TAK1 antibody and protein G agarose; cells with or without Pam3CSK4 (1 µg/mL) for 1 h
T3 sequence: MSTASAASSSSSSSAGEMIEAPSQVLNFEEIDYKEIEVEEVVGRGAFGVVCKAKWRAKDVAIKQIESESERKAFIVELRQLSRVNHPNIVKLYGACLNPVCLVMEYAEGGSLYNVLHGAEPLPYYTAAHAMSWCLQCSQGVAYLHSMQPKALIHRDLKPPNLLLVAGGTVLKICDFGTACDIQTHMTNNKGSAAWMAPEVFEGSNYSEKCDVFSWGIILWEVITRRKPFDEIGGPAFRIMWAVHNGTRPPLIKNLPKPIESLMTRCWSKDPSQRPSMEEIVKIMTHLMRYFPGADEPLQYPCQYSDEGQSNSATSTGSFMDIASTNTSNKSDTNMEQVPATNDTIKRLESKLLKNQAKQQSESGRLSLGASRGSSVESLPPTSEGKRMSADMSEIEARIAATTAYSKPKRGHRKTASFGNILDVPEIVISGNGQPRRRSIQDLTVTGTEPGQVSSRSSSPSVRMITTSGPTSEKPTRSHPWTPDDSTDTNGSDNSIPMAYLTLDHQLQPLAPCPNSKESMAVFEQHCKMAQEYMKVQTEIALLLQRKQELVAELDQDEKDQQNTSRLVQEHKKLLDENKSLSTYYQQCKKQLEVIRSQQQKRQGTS

[4] = biological target: T4, GST-fused TAK1 (35–291) (human) (UniProt O43318); test: pull-down; GST pull-down from lysates (RIPA buffer) of transiently cotransfected HEK 293 cells; glutathione Sepharose 4B, 3 h at 4 °C, washed four times; blots with α-FLAG and α-GST
T4 sequence: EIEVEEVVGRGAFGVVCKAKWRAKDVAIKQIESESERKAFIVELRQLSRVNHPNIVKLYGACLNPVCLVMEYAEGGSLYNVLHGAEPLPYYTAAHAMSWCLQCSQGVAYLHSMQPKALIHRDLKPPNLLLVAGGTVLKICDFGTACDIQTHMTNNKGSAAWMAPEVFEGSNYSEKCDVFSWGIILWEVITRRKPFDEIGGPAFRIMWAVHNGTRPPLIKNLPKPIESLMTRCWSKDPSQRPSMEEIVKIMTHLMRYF

[5] = biological target: T5, TAK1 (K63W), kinase dead form (pEBG-TAK1 (K63W)) (human) (UniProt O43318); test: as above
T5 sequence: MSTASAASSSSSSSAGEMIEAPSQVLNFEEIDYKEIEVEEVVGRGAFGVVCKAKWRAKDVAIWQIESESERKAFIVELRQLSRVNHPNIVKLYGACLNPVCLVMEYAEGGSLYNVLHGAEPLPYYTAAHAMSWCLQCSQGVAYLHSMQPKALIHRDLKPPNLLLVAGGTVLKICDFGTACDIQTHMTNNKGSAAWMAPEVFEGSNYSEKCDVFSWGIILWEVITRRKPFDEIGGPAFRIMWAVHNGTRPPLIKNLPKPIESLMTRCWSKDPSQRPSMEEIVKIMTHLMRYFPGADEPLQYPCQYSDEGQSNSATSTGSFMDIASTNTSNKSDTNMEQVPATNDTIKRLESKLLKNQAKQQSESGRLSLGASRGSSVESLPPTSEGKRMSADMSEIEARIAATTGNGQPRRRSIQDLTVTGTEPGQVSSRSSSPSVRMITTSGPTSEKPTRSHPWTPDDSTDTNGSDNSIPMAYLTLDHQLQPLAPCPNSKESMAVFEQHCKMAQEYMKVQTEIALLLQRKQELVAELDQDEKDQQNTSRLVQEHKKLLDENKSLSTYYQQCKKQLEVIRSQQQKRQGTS

[6] = biological target: T6, GST-fused TAK1 (pEBG-TAK1) (human) (UniProt O43318); test: as above
T6 sequence: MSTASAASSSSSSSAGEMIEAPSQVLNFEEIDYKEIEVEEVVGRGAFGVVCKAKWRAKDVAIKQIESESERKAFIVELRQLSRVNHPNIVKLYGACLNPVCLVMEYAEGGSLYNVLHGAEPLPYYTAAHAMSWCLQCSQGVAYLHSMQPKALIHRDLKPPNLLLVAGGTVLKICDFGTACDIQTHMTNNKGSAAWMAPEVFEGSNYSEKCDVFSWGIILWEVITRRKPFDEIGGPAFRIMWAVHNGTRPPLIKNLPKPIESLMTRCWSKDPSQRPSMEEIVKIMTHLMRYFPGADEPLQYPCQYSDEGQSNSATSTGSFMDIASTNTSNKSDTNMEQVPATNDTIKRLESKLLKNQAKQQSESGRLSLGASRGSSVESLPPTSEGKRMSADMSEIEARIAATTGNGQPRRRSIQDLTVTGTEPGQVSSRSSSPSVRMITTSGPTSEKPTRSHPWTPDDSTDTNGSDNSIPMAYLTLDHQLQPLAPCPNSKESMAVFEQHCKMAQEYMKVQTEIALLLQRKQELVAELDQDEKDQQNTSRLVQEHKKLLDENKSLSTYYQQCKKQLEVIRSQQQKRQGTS

B1: FLAG-TAK1 (pFLAG-TAK1) (protein, UniProt O43318-2 1-579)
chain: MSTASAASSSSSSSAGEMIEAPSQVLNFEEIDYKEIEVEEVVGRGAFGVVCKAKWRAKDVAIKQIESESERKAFIVELRQLSRVNHPNIVKLYGACLNPVCLVMEYAEGGSLYNVLHGAEPLPYYTAAHAMSWCLQCSQGVAYLHSMQPKALIHRDLKPPNLLLVAGGTVLKICDFGTACDIQTHMTNNKGSAAWMAPEVFEGSNYSEKCDVFSWGIILWEVITRRKPFDEIGGPAFRIMWAVHNGTRPPLIKNLPKPIESLMTRCWSKDPSQRPSMEEIVKIMTHLMRYFPGADEPLQYPCQYSDEGQSNSATSTGSFMDIASTNTSNKSDTNMEQVPATNDTIKRLESKLLKNQAKQQSESGRLSLGASRGSSVESLPPTSEGKRMSADMSEIEARIAATTGNGQPRRRSIQDLTVTGTEPGQVSSRSSSPSVRMITTSGPTSEKPTRSHPWTPDDSTDTNGSDNSIPMAYLTLDHQLQPLAPCPNSKESMAVFEQHCKMAQEYMKVQTEIALLLQRKQELVAELDQDEKDQQNTSRLVQEHKKLLDENKSLSTYYQQCKKQLEVIRSQQQKRQGTS
binding [1]: binds

B2: purified recombinant TXNIP (protein, UniProt Q9H3M7 1-391)
chain: MVMFKKIKSFEVVFNDPEKVYGSGEKVAGRVIVEVCEVTRVKAVRILACGVAKVLWMQGSQQCKQTSEYLRYEDTLLLEDQPTGENEMVIMRPGNKYEYKFGFELPQGPLGTSFKGKYGCVDYWVKAFLDRPSQPTQETKKNFEVVDLVDVNTPDLMAPVSAKKEKKVSCMFIPDGRVSVSARIDRKGFCEGDEISIHADFENTCSRIVVPKAAIVARHTYLANGQTKVLTQKLSSVRGNHIISGTCASWRGKSLRVQKIRPSILGCNILRVEYSLLIYVSVPGSKKVILDLPLVIGSRSGLSSRTSSMASRTSSEMSWVDLNIPDTPEAPPCYMDVIPEDHRLESPTTPLLDDMDGSQDSPIFMYAPEFKFMPPPTYTEVDPCILNNNVQ
binding [2]: binds

B3: endogenous TXNIP of NK92 cells (protein, UniProt Q9H3M7 1-391)
chain: MVMFKKIKSFEVVFNDPEKVYGSGEKVAGRVIVEVCEVTRVKAVRILACGVAKVLWMQGSQQCKQTSEYLRYEDTLLLEDQPTGENEMVIMRPGNKYEYKFGFELPQGPLGTSFKGKYGCVDYWVKAFLDRPSQPTQETKKNFEVVDLVDVNTPDLMAPVSAKKEKKVSCMFIPDGRVSVSARIDRKGFCEGDEISIHADFENTCSRIVVPKAAIVARHTYLANGQTKVLTQKLSSVRGNHIISGTCASWRGKSLRVQKIRPSILGCNILRVEYSLLIYVSVPGSKKVILDLPLVIGSRSGLSSRTSSMASRTSSEMSWVDLNIPDTPEAPPCYMDVIPEDHRLESPTTPLLDDMDGSQDSPIFMYAPEFKFMPPPTYTEVDPCILNNNVQ
binding [3]: binds

B4: FLAG-tagged TXNIP (full) (protein, UniProt Q9H3M7 1-391)
chain: MVMFKKIKSFEVVFNDPEKVYGSGEKVAGRVIVEVCEVTRVKAVRILACGVAKVLWMQGSQQCKQTSEYLRYEDTLLLEDQPTGENEMVIMRPGNKYEYKFGFELPQGPLGTSFKGKYGCVDYWVKAFLDRPSQPTQETKKNFEVVDLVDVNTPDLMAPVSAKKEKKVSCMFIPDGRVSVSARIDRKGFCEGDEISIHADFENTCSRIVVPKAAIVARHTYLANGQTKVLTQKLSSVRGNHIISGTCASWRGKSLRVQKIRPSILGCNILRVEYSLLIYVSVPGSKKVILDLPLVIGSRSGLSSRTSSMASRTSSEMSWVDLNIPDTPEAPPCYMDVIPEDHRLESPTTPLLDDMDGSQDSPIFMYAPEFKFMPPPTYTEVDPCILNNNVQ
binding [4]: binds | binding [5]: binds | binding [6]: binds
